# In the supplement of paper PMC3334620:
# Whole data set: some 33,000 sequences, median “E-score (-0.5 to 0.5)” near -0.021, cut for the highest 2% near 0.32. The list shows a part of the results.
# Molecular target: T1, Zap1 (UniProt P47043)
# T1 sequence: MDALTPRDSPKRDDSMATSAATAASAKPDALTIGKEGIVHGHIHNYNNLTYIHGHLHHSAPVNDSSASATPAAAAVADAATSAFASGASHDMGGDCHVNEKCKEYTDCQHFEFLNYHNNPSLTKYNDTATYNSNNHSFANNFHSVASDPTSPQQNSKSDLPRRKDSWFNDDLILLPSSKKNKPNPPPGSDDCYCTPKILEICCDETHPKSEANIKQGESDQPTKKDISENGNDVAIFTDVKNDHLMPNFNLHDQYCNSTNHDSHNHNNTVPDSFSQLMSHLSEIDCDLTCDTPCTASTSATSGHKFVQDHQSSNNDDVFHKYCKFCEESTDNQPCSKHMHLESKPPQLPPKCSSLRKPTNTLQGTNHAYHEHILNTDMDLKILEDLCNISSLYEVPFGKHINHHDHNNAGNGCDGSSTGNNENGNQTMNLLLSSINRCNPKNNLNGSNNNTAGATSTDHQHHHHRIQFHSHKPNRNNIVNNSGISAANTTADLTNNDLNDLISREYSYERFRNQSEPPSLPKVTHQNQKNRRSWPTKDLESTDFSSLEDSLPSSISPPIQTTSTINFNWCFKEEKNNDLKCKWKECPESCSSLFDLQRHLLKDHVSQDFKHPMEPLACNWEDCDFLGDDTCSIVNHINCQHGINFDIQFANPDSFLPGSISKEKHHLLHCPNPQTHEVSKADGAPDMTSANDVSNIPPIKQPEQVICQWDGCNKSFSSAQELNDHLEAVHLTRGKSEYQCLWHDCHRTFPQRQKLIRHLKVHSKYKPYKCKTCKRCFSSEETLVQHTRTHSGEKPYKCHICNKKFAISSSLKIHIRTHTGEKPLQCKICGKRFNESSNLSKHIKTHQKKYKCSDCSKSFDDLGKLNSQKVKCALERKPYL
# Assay: PBM E-score (8-mer binding enrichment) (E-score (-0.5 to 0.5)); higher = stronger / more preferred TF binding; most listed sequences are background and not binding sites
# Details: protein concentration: 200 nM; construct: GST-full length
# Outline: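 GST-tagged yeast TFs (full-length or DNA-binding domain) were made by PURExpress in vitro transcription/translation and applied at about 100-200 nM to universal all-10-mer Agilent arrays. The arrays were made double-stranded by primer extension, on fresh or once-stripped slides. Bound protein was detected with fluorescent anti-GST, and scans were normalised with masliner. Each ungapped eight-base word, pooled with its reverse complement, received an E-score (modified Wilcoxon-Mann-Whitney statistic) from the Universal PBM Analysis Suite.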
row,Sequence,PBM E-score
1,TACTAGAA,0.0998
2,ATCTCGTA,-0.0363
3,ACGTAAGC,-0.186
4,AACGGAGT,-0.0136
5,CGAGGTGC,-0.0405
6,GCTAGCTA,-0.0745
7,ATGGAGAC,-0.102
8,ATTATATC,0.0345
9,GAGCCCAA,-0.0241
10,CTCGAGTC,0.0344
11,CATGCACC,0.00947
12,GGTATGAA,0.313
13,GGGTTGCA,0.352
14,CTGCGTGA,-0.173
15,AAGATTGC,0.034
16,CGGTATTC,0.0519
17,AAAGTTAT,0.195
18,CCAGATAG,0.0348
19,CAATATAC,0.0336
20,CTCGCGTC,0.0188
21,CCGGCGTC,-0.11
22,ACCGCATA,0.231
23,AGTTGACA,0.103
24,ACACCGAT,-0.148
25,CCTACATC,-0.099

row,Sequence,PBM E-score
1,GCTCATCA,-0.0853
2,ACAGACAC,0.0689
3,ACTATTCT,-0.034
4,CGTGCTTA,-0.0642
5,GCCATCCC,-0.137
6,CAATAACA,0.0373
7,CCAAGGAC,-0.00128
8,CAAGCTGC,-0.118
9,AGTGCTAC,-0.179
10,AGAATTGC,-0.0387
11,TGAGCAAA,0.00108
12,TCGATCAA,-0.00608
13,AGAACGCA,-0.0824
14,TCTGTCAA,-0.113
15,ATGTCCGC,-0.033
16,CTGTCTGA,-0.109
17,CGTGCATA,-0.0651
18,TTAGATAA,0.0775
19,TCGGACAA,0.0839
20,GACATCGC,-0.157
21,ATAAGGTG,0.257
22,ATGGTCCA,0.0137
23,CACAAAAC,0.23
24,CCCCATCC,0.0278
25,GAATTATC,0.064

row,Sequence,PBM E-score
1,CTCGTATC,0.125
2,CAACAGTC,-0.267
3,CGGTTTCC,0.0737
4,AATCACGA,-0.0428
5,CCCTAGGA,0.0656
6,AGGTACAT,0.156
7,CCGAAGAA,-0.075
8,ACGAACCC,0.0823
9,TATACTCA,0.0941
10,ATAATTTC,0.106
11,GCTCCTCA,-0.203
12,AGTCAGTA,-0.0932
13,GCCAAACC,0.00737
14,ATCCTATC,-0.0869
15,GTGAGACA,-0.0104
16,AGTCCTTC,-0.331
17,ATAGGAAA,0.077
18,CGATGCCG,-0.11
19,CCCATCCA,-0.00181
20,CAAAGCAA,0.148
21,CGAGCGGC,-0.0829
22,GCCGGCCA,-0.0187
23,ACTCAACC,0.153
24,AATTCCGG,0.0635
25,AGTCAGTC,-0.271

row,Sequence,PBM E-score
1,GAGCTAAC,0.0901
2,ACCCCAAT,0.211
3,CTAGGACC,0.0113
4,AGTAGAGA,-0.131
5,CCCGCGTA,0.00687
6,TACCGGAA,0.178
7,CTCGGTAC,-0.0929
8,CCCGACAA,0.132
9,GCGCTCAC,-0.198
10,ACAATGGG,-0.0216
11,CGTCTGTA,-0.0155
12,AGTATAAA,0.306
13,GAGCGGGC,-0.271
14,ATGGGCAC,0.0961
15,AGGATGAA,-0.1
16,AGACAATC,-0.107
17,AAAGCTCA,-0.116
18,AGTCCCGG,-0.15
19,GAAACCCA,0.246
20,CTTAACAA,0.112
21,TGAGACCA,-0.0352
22,ATCTGTTG,-0.124
23,GCGCTATA,-0.105
24,AGCTGCGG,-0.323
25,CACGTTAA,0.0562

row,Sequence,PBM E-score
1,ACAGATCG,-0.141
2,AAGCCTAG,-0.14
3,CTGCACGC,-0.159
4,ACAAGAAA,0.19
5,ACCAGGAC,0.14
6,AGGCGAGA,-0.172
7,AGAATGAG,-0.192
8,CGTAGGAC,-0.0801
9,GACACAAA,0.192
10,CCTTTCTA,0.121
11,CGGAATCC,-0.133
12,CTCGTGCA,-0.00737
13,AATCCATA,0.0606
14,CGCGATAC,0.0894
15,AGAATCAC,-0.168
16,CCACGTCG,-0.157
17,ACAACGGG,-0.0221
18,GCTTACTA,-0.0158
19,ACTCACCG,-0.0582
20,CGACTAGA,-0.132
21,CCAGGCTA,-0.255
22,CCGACGGA,-0.0612
23,GTAGGACA,0.134
24,CATTTGAC,0.0147
25,CTTGAGCA,-0.0146

row,Sequence,PBM E-score
1,ACGGCAAT,0.0376
2,CAGGCTCG,-0.172
3,GTCCCAAA,0.0529
4,CTAACTAC,0.0772
5,TCACGTGA,-0.169
6,GCGACTCA,-0.117
7,GAAAATTA,-0.071
8,GGAACAAA,0.111
9,ATCATACG,-0.0919
10,AAGGAACG,-0.0438
11,AACACCTG,-0.0293
12,ATACTGAA,-0.0762
13,AGCCGCCG,-0.13
14,ATACGAGC,0.0897
15,GTTCTGTA,0.206
16,CATACTGG,-0.142
17,ACTTCAGG,0.0219
18,AGAACATA,0.16
19,CAACGCCA,-0.0912
20,TTCCCAAA,0.0682
21,CATGCTGA,0.0171
22,CTTGACAC,-0.0234
23,ATCCGGCC,-0.0853
24,GCCCTATA,-0.144
25,TAAAAAGA,0.103

row,Sequence,PBM E-score
1,ACGTGCGC,-0.112
2,ACGACGAC,-0.219
3,GAACATCA,-0.0169
4,GCTCGTCC,-0.166
5,ATGTGTAA,0.0333
6,CAGTGCGC,-0.228
7,AGGCTATG,-0.208
8,CGTGATTA,0.151
9,CCAGGCGC,-0.179
10,GAGTTAAC,0.00603
11,ACCCCAGG,0.164
12,CTTAACGC,-0.0364
13,AACCAGCT,0.0824
14,AGTCAGAT,-0.193
15,CTGGAACC,0.0977
16,CGTTGACC,0.178
17,GAAGCATC,-0.258
18,CCAATGGA,-0.192
19,CAGCTGGC,-0.0978
20,GCTTATAA,0.106
21,ACCGCAGA,0.0711
22,TCTCGAGA,0.13
